# Experimental data taken from the supplement of paper PMC8728848.
# The other results are listed elsewhere or left out.
# B1: SAG3 (Toxoplasma gondii), Q9BJ39 (protein)
# chain: MQLWRRRAAGPASLGRQSLPLGCFFAAFGLCVLSAILGTGERGLFVAAGNSRRKITYFGTLTQKAPNWYRCSSTRAKEEVVGHVTLNKEHPDMTIECVDDGLGGEFLPLEGARSSYPRVCHIDAKDQDDCERNRGFLTDYIPGAKQYWYKIEKVEQNGEQSVLYKFTVPWILLPPAKQRYKVGCRYPNHEYCFVEVTVEPTPPMVEGKRVTCGYSESGPVNLEVDLSKNANFIEIRCGEQHHPQPSTYTLQYCSGDSVDPQKCSPQSLTNIFYDYSSSWWKGKLNGPDGATLTIPPGGFPEEDKSFLVGCSLTVDGPPFCNVKVRVAGNPRKWERGGGGHPGSGGLQPGTDGETQAGTGSSAGASSRMASVALAFLLGLLVHVAA
# Columns and labels:
# Assay in all cases: glycan array binding signal (z-score within array); higher = stronger binding
# Conditions in all cases: glycan notation: IUPAC condensed, linker removed
# [1] = biological target: Gal(b1-3)[Fuc(a1-4)]GlcNAc
# How it was run: (§1)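 Columns mapping to the same glycan were averaged after glycan names were converted to IUPAC-condensed notation. The data come from 3228 arrays in the Consortium for Functional Glycomics database, limited to those with an available protein sequence. Binding is reported as a within-array Z-score averaged across arrays of one protein sequence and across linkers.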
# [2] = biological target: Gal(b1-3)[Fuc(a1-4)]GlcNAc(b1-2)Man(a1-3)[Gal(b1-3)[Fuc(a1-4)]GlcNAc(b1-2)Man(a1-6)]Man(b1-4)GlcNAc(b1-4)GlcNAc
# How it was run: as §1
# [3] = biological target: Gal(b1-3)[Fuc(a1-4)]GlcNAc(b1-2)Man(a1-3)[Gal(b1-3)[Fuc(a1-4)]GlcNAc(b1-2)Man(a1-6)]Man(b1-4)GlcNAc(b1-4)[Fuc(a1-6)]GlcNAc
# How it was run: as §1
# [4] = biological target: Gal(b1-3)[Fuc(a1-4)]GlcNAc(b1-3)Gal(b1-3)[Fuc(a1-4)]GlcNAc
# How it was run: as §1
# [5] = biological target: Gal(b1-3)[Fuc(a1-4)]GlcNAc(b1-3)Gal(b1-4)GlcNAc
# How it was run: as §1
# [6] = biological target: Gal(b1-3)[Fuc(a1-4)]GlcNAc(b1-3)Gal(b1-4)[Fuc(a1-3)]GlcNAc
# How it was run: as §1
# [7] = biological target: Gal(b1-3)[GlcNAc(b1-6)]GalNAc
# How it was run: as §1
# [8] = biological target: Gal(b1-3)[Neu5Ac(a2-6)]GalNAc
# How it was run: as §1
# [9] = biological target: Gal(b1-3)[Neu5Ac(a2-6)]GlcNAc(b1-6)Gal(b1-4)Glc
# How it was run: as §1
# [10] = biological target: Gal(b1-3)[Neu5Ac(b2-6)]GalNAc
# How it was run: as §1
# [11] = biological target: Gal(b1-4)GalNAc(a1-3)[Fuc(a1-2)]Gal(b1-4)GlcNAc
# How it was run: as §1
# [12] = biological target: Gal(b1-4)GalNAc(b1-3)[Fuc(a1-2)]Gal(b1-4)GlcNAc
# How it was run: as §1
# Gal(b1-4)Glc = biological target: Gal(b1-4)Glc
# How it was run: as §1
# Gal(b1-4)Glc6S = biological target: Gal(b1-4)Glc6S
# How it was run: as §1
# Gal(b1-4)GlcNAc = biological target: Gal(b1-4)GlcNAc
# How it was run: as §1
# [13] = biological target: Gal(b1-4)GlcNAc(a1-6)Gal(b1-4)GlcNAc
# How it was run: as §1
# [14] = biological target: Gal(b1-4)GlcNAc(b1-2)Man(a1-3)Man(b1-4)GlcNAc(b1-4)GlcNAc
# How it was run: as §1
# [15] = biological target: Gal(b1-4)GlcNAc(b1-2)Man(a1-3)[Gal(b1-4)GlcNAc(b1-2)Man(a1-6)]Man(b1-4)GlcNAc(b1-4)GlcNAc
# How it was run: as §1
# [16] = biological target: Gal(b1-4)GlcNAc(b1-2)Man(a1-3)[Gal(b1-4)GlcNAc(b1-2)Man(a1-6)]Man(b1-4)GlcNAc(b1-4)[Fuc(a1-6)]GlcNAc
# How it was run: as §1
# [17] = biological target: Gal(b1-4)GlcNAc(b1-2)Man(a1-3)[GlcNAc(b1-2)Man(a1-6)]Man(b1-4)GlcNAc(b1-4)GlcNAc
# How it was run: as §1
# [18] = biological target: Gal(b1-4)GlcNAc(b1-2)Man(a1-3)[Man(a1-6)]Man(b1-4)GlcNAc(b1-4)GlcNAc
# How it was run: as §1
# [19] = biological target: Gal(b1-4)GlcNAc(b1-2)Man(a1-6)Man(b1-4)GlcNAc(b1-4)GlcNAc
# How it was run: as §1
# [20] = biological target: Gal(b1-4)GlcNAc(b1-2)Man(a1-6)[GlcNAc(b1-2)Man(a1-3)]Man(b1-4)GlcNAc(b1-4)GlcNAc
# How it was run: as §1
# [21] = biological target: Gal(b1-4)GlcNAc(b1-2)Man(a1-6)[Man(a1-3)]Man(b1-4)GlcNAc(b1-4)GlcNAc
# How it was run: as §1
# [22] = biological target: Gal(b1-4)GlcNAc(b1-2)[Gal(b1-4)GlcNAc(b1-4)]Man(a1-3)[Gal(b1-4)GlcNAc(b1-2)Man(a1-6)]Man(b1-4)GlcNAc(b1-4)GlcNAc
# How it was run: as §1
# [23] = biological target: Gal(b1-4)GlcNAc(b1-2)[Gal(b1-4)GlcNAc(b1-4)]Man(a1-3)[Gal(b1-4)GlcNAc(b1-2)[Gal(b1-4)GlcNAc(b1-6)]Man(a1-6)]Man(b1-4)GlcNAc(b1-4)GlcNAc
# How it was run: as §1
# [24] = biological target: Gal(b1-4)GlcNAc(b1-3)Gal(b1-3)GlcNAc
# How it was run: as §1
# [25] = biological target: Gal(b1-4)GlcNAc(b1-3)Gal(b1-4)Glc
# How it was run: as §1
# [26] = biological target: Gal(b1-4)GlcNAc(b1-3)Gal(b1-4)GlcNAc
# How it was run: as §1
# [27] = biological target: Gal(b1-4)GlcNAc(b1-3)Gal(b1-4)GlcNAc(b1-3)Gal(b1-4)GlcNAc
# How it was run: as §1
# [28] = biological target: Gal(b1-4)GlcNAc(b1-3)Gal(b1-4)[Fuc(a1-3)]GlcNAc(b1-3)Gal(b1-4)[Fuc(a1-3)]GlcNAc
# How it was run: as §1
# [29] = biological target: Gal(b1-4)GlcNAc(b1-3)GalNAc
# How it was run: as §1
# [30] = biological target: Gal(b1-4)GlcNAc(b1-3)[Gal(b1-4)GlcNAc(b1-6)]Gal(b1-4)GlcNAc
# How it was run: as §1
# [31] = biological target: Gal(b1-4)GlcNAc(b1-3)[Gal(b1-4)GlcNAc(b1-6)]GalNAc
# How it was run: as §1
# [32] = biological target: Gal(b1-4)GlcNAc(b1-3)[GlcNAc(b1-6)]Gal(b1-4)GlcNAc
# How it was run: as §1
# [33] = biological target: Gal(b1-4)GlcNAc(b1-6)Gal(b1-4)GlcNAc
# How it was run: as §1
# [34] = biological target: Gal(b1-4)GlcNAc(b1-6)GalNAc
# How it was run: as §1
binder,measurement,setting,value
B1,glycan array binding signal (z-score),[1],0.01
same,glycan array binding signal (z-score),[2],0.126
same,glycan array binding signal (z-score),[3],-0.533
same,glycan array binding signal (z-score),[4],-0.41
same,glycan array binding signal (z-score),[5],-0.077
same,glycan array binding signal (z-score),[6],-0.061
same,glycan array binding signal (z-score),[7],-0.291
same,glycan array binding signal (z-score),[8],-0.491
same,glycan array binding signal (z-score),[9],-0.087
same,glycan array binding signal (z-score),[10],0.318
same,glycan array binding signal (z-score),[11],-0.228
same,glycan array binding signal (z-score),[12],0.211
same,glycan array binding signal (z-score),Gal(b1-4)Glc,-0.44
same,glycan array binding signal (z-score),Gal(b1-4)Glc6S,-0.304
same,glycan array binding signal (z-score),Gal(b1-4)GlcNAc,-0.501
same,glycan array binding signal (z-score),[13],-0.23
same,glycan array binding signal (z-score),[14],-0.23
same,glycan array binding signal (z-score),[15],-0.335
same,glycan array binding signal (z-score),[16],0.616
same,glycan array binding signal (z-score),[17],-0.184
same,glycan array binding signal (z-score),[18],-0.158
same,glycan array binding signal (z-score),[19],0.039
same,glycan array binding signal (z-score),[20],0.359
same,glycan array binding signal (z-score),[21],-0.105
same,glycan array binding signal (z-score),[22],0.471
same,glycan array binding signal (z-score),[23],0.304
same,glycan array binding signal (z-score),[24],0.046
same,glycan array binding signal (z-score),[25],-0.485
same,glycan array binding signal (z-score),[26],0.013
same,glycan array binding signal (z-score),[27],-0.416
same,glycan array binding signal (z-score),[28],0.858
same,glycan array binding signal (z-score),[29],-0.162
same,glycan array binding signal (z-score),[30],-0.392
same,glycan array binding signal (z-score),[31],-0.475
same,glycan array binding signal (z-score),[32],-0.204
same,glycan array binding signal (z-score),[33],-0.066
same,glycan array binding signal (z-score),[34],-0.206
